The list shows a part of the results. Repeats are few or missing, and single values can be far off.
test system: WM451Lu; test: cell count relative to DMSO control; melanoma cells; higher = more viable cells; settings: library dose: low library concentration; 72 h
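Also: cell number obtained by counting DAPI-stained nuclei in high-throughput microscope images with image analysis software, screen run in 1,536-well plates.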

SMILES	cell count
N.N.[Cl][Pt][Cl] [cisplatin] + O=C(Nc1ccccc1)c1cc([N+](=O)[O-])ccc1Cl [GW9662] (first compound 1.6 µM, partner dose 2 µM)	110%
Cn1cc(C2=C(c3cn(C4CCN(Cc5ccccn5)CC4)c4ccccc34)C(=O)NC2=O)c2ccccc21 [Enzastaurin] + Cn1cc(/C=C2\C(=O)Nc3cccnc32)c2ccccc21 [GW441756] (first compound 0.8 µM, partner dose 0.4 µM)	91.2%
C[C@]12O[C@H](C[C@]1(O)CO)n1c3ccccc3c3c4c(c5c6ccccc6n2c5c31)CNC4=O [Lestaurtinib] + C=CCNC1=C2C[C@@H](C)C[C@H](OC)[C@H](O)[C@@H](C)/C=C(\C)[C@H](OC(N)=O)[C@@H](OC)/C=C\C=C(/C)C(=O)NC(=CC1=O)C2=O [Tanespimycin] (first compound 0.004 µM, partner dose 0.002 µM)	90.7%
N.N.[Cl][Pt][Cl] [cisplatin] + C[C@@H]1CCN(C(=O)CC#N)C[C@@H]1N(C)c1ncnc2[nH]ccc12 [CP690550] (first compound 1.6 µM, partner dose 1 µM)	93.5%
C[C@]12O[C@H](C[C@]1(O)CO)n1c3ccccc3c3c4c(c5c6ccccc6n2c5c31)CNC4=O [Lestaurtinib] + CCCS(=O)(=O)Nc1ccc(F)c(C(=O)c2c[nH]c3ncc(Cl)cc23)c1F [PLX4720] (first compound 0.004 µM, partner dose 0.08 µM)	100%
